Measurements reported in US20240117030A1 (Pfizer, published 2024).
Where a chain is given by its changes, count along the chain named.

Legend:
Test in all cases: cell-based or functional assay
[1] = target: T1, recombinant human IL-12 (human, UniProt P29459 23-219; P29460 23-328)
T1 sequence (looked up) 1: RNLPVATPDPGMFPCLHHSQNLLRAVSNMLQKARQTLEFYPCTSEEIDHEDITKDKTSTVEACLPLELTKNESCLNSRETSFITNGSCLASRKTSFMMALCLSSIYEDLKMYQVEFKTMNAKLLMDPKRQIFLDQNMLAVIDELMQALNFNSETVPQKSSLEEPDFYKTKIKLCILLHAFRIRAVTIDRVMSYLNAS
T1 sequence (looked up) 2: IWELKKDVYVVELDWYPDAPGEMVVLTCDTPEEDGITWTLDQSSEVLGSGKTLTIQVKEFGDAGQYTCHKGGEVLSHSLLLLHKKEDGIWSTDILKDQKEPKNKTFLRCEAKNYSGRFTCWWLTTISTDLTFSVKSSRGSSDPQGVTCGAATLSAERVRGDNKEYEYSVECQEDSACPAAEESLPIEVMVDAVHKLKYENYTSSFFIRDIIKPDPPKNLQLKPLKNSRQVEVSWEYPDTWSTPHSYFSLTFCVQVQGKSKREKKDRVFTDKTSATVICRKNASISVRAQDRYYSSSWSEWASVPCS

[2] = target: T2, recombinant human IL-4 (human, UniProt P05112 25-153)
T2 sequence (looked up): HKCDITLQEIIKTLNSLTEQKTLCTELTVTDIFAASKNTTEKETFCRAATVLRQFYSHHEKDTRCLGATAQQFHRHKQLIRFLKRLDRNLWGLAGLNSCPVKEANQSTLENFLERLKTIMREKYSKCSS

[3] = target: recombinant human IL-13 (human, UniProt P35225 partial chain)
UniProt P35225, sequence (P35225 35-146 limits assumed): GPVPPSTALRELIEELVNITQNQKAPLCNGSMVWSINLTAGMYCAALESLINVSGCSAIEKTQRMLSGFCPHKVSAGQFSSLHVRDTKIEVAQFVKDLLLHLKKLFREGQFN

- IL-12 induced STAT4 phosphorylation (IC50), Tri-Fab-Fc [1]: 3.03 nM
- IL-4 induced CD23 upregulation (IC50), Tri-Fab-Fc [2]: 8.11 pM
- IL-13 induced CD23 upregulation (IC50), Tri-Fab-Fc [3]: 9.14 pM
B1: IL413p40-0044 (other)
heavy: EVQLVESGGGLVQPGGSLRLSCAASGFTFSSYAMSWVRQAPGKGLEWVASISSGDTTYYPDSVKGRFTISRDNAKNSLYLQMNSLRAEDTAVYYCARNEGYYFGLTLWGQGTLVTVSSASTKGPSVFPKAPSSKSTSGGTAALGCLVKDYFPEPVTVSWNSGALTSGVHTFPAVLQSSGLYSLSSSVTVPSSSLGTQTYICNVNHKPSNTKVDKKVEPKSCDKTHTCPPCPAPEAAGAPSVFLFPPKPKDTLMISRTPEVTCVVVDVSHEDPEVKFNWYVDGVEVHNAKTKPREEQYNSTYRVVSVLTVLHQDWLNGKEYKCKVSNKALPAPIEKTISKAKGQPREPQVCTLPPSREEMTKNQVSLWCLVKGFYPSDIAVEWESNGQPENNYKTTPPVLDSDGSFFLYSKLTVDKSRWQQGNVFSCSVMHEALHNHYTQKSLSLSPGK
chain 1: [about 200 residues not written out]GGGGSEVTLRESGPALVKPTQTLTLTCTFSGFSLSNFGEGLSWIRQPPGKGLEWLAHIYWDDDKRYNPSLKSRLTISKDTSRNQVVLTMTNMDPVDTATYYCARRETVFYWYFDVWGQGTTVTVSSASTKGPSVFPEAPSSKSTSGGTAALGCLVKDYFPEPVTVSWNSGALTSGVHTFPAVLQSSGLYSLGSVVTVPSSSLGTQTYICNVNHKPSNTKVDKKVEPKSCDKTHTCPPCPAPEAAGAPSVFLFPPKPKDTLMISRTPEVTCVVVDVSHEDPEVKFNWYVDGVEVHNAKTKPREEQYNSTYRVVSVLTVLHQDWLNGKEYKCKVSNKALPAPIEKTISKAKGQPREPQVYTLPPCREEMTKNQVSLSCAVKGFYPSDIAVEWESNGQPENNYKTTPPVLDSDGSFFLVSKLTVDKSRWQQGNVFSCSVMHEALHNHYTQKSLSLSPGK
light 1: DIQMTQSPSSLSASVGDRVTITCKASESVDHFGWSLVHWYQQKPGKAPKLLIYRASNLESGVPSRFSGSGSGTDFTLTISSLQPEDFATYYCQQSNEDPWTFGGGTKVEIKRTVAAPSVFIFPPSDEQLKSGTASVSCLLNNFYPREAKVQWKVDNALQSGNSQESVTEQDSKDSTYSLDSTLTLSKADYEKHKVYACEVTHQGLSSPVTKSFNRGEC
light 2: B1 light 1 with E27Q, H31E, F32D, W34D, L36Y, V37M, H38N, R54A, W100P, D180K
chain 2: EVQLVQSGAEVKKPGESLKISCKGSGYSFTTYWLGWVRQMPGKGLDWIGIMSPVDSDIRYSPSFQGQVTMSVDKSITTAYLQWNSLKASDTAMYYCARRRPGQGYFDFWGQGTLVTVSSASTKGPSVFPLAPSSKSTSGGTAALGCLVKDYFPEPVTVSWNSGALTSGVHTFPAVLQSSGLYSLSSVVTVPSSSLGTQTYICNVNHKPSNTKVDKKVEPKSC
